Test results as given in the supplement of paper PMC8728848.
The other results are listed elsewhere or left out.

Key:
Experiment in all cases: glycan array binding signal (z-score within array); higher = stronger binding
Conditions in all cases: glycan notation: IUPAC condensed, linker removed
[1] = target: Gal(b1-4)GlcNAc(b1-3)Gal(b1-4)GlcNAc(b1-3)[Gal(b1-4)GlcNAc(b1-3)Gal(b1-4)GlcNAc(b1-6)]GalNAc
In short: (§1)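 Columns mapping to the same glycan were averaged after glycan names were converted to IUPAC-condensed notation. The data come from 3228 arrays in the Consortium for Functional Glycomics database, limited to those with an available protein sequence. Binding is reported as a within-array Z-score averaged across arrays of one protein sequence and across linkers.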

[2] = target: Gal(b1-4)GlcNAc(b1-3)Gal(b1-4)GlcNAc(b1-6)[Gal(b1-3)]GalNAc
In short: as §1

[3] = target: Gal(b1-4)GlcNAc(b1-3)Gal(b1-4)[Fuc(a1-3)]GlcNAc(b1-3)Gal(b1-4)[Fuc(a1-3)]GlcNAc
In short: as §1

[4] = target: Gal(b1-4)GlcNAc(b1-3)GalNAc
In short: as §1

[5] = target: Gal(b1-4)GlcNAc(b1-3)[Fuc(a1-3)GlcNAc(b1-6)]Gal(b1-4)Glc
In short: as §1

[6] = target: Gal(b1-4)GlcNAc(b1-3)[Gal(b1-4)GlcNAc(b1-6)]Gal(b1-4)GlcNAc
In short: as §1

[7] = target: Gal(b1-4)GlcNAc(b1-3)[GlcNAc(b1-6)]Gal(b1-4)GlcNAc
In short: as §1

[8] = target: Gal(b1-4)GlcNAc(b1-6)Gal(b1-4)GlcNAc
In short: as §1

[9] = target: Gal(b1-4)GlcNAc(b1-6)GalNAc
In short: as §1

[10] = target: Gal(b1-4)GlcNAc(b1-6)[Gal(b1-3)]GalNAc
In short: as §1

[11] = target: Gal(b1-4)GlcNAc(b1-6)[Gal(b1-4)GlcNAc(b1-3)]GalNAc
In short: as §1

Gal(b1-4)GlcNAc6P = target: Gal(b1-4)GlcNAc6P
In short: as §1

Gal(b1-6)Gal = target: Gal(b1-6)Gal
In short: as §1

Gal3S(b1-3)GalNAc = target: Gal3S(b1-3)GalNAc
In short: as §1

Gal3S(b1-3)GlcNAc = target: Gal3S(b1-3)GlcNAc
In short: as §1

[12] = target: Gal3S(b1-3)[Fuc(a1-4)]GlcNAc
In short: as §1

Gal3S(b1-4)Glc = target: Gal3S(b1-4)Glc
In short: as §1

Gal3S(b1-4)Glc6S = target: Gal3S(b1-4)Glc6S
In short: as §1

Gal3S(b1-4)GlcNAc = target: Gal3S(b1-4)GlcNAc
In short: as §1

[13] = target: Gal3S(b1-4)[Fuc(a1-3)]Glc6S
In short: as §1

[14] = target: Gal3S(b1-4)[Fuc(a1-3)]GlcNAc
In short: as §1

[15] = target: Gal3S(b1-4)[Fuc(a1-3)]GlcNAc6S
In short: as §1

Gal3S4S(b1-4)GlcNAc = target: Gal3S4S(b1-4)GlcNAc
In short: as §1

Gal3S6S(b1-4)GlcNAc = target: Gal3S6S(b1-4)GlcNAc
In short: as §1

Gal3S6S(b1-4)GlcNAc6S = target: Gal3S6S(b1-4)GlcNAc6S
In short: as §1

Gal4S(b1-4)GlcNAc = target: Gal4S(b1-4)GlcNAc
In short: as §1

Gal4S6S(b1-4)GlcNAc = target: Gal4S6S(b1-4)GlcNAc
In short: as §1

Gal6P(b1-4)GlcNAc = target: Gal6P(b1-4)GlcNAc
In short: as §1

Gal6S(b1-3)GlcNAc = target: Gal6S(b1-3)GlcNAc
In short: as §1

Gal6S(b1-3)GlcNAc6S = target: Gal6S(b1-3)GlcNAc6S
In short: as §1

Gal6S(b1-4)Glc = target: Gal6S(b1-4)Glc
In short: as §1

Gal6S(b1-4)Glc6S = target: Gal6S(b1-4)Glc6S
In short: as §1

Gal6S(b1-4)GlcNAc = target: Gal6S(b1-4)GlcNAc
In short: as §1

Gal6S(b1-4)GlcNAc6S = target: Gal6S(b1-4)GlcNAc6S
In short: as §1

GalNAc(a1-3)Gal = target: GalNAc(a1-3)Gal
In short: as §1

GalNAc(a1-3)GalNAc = target: GalNAc(a1-3)GalNAc
In short: as §1

[16] = target: GalNAc(a1-3)GalNAc(b1-3)Gal(a1-4)Gal(b1-4)Glc
In short: as §1

[17] = target: GalNAc(a1-3)GalNAc(b1-3)Gal(a1-4)Gal(b1-4)GlcNAc
In short: as §1

GalNAc(b1-3)Gal = target: GalNAc(b1-3)Gal
In short: as §1

[18] = target: GalNAc(b1-3)Gal(a1-4)Gal(b1-4)GlcNAc
In short: as §1

[19] = target: GalNAc(b1-3)Gal(a1-4)Gal(b1-4)GlcNAc(b1-3)Gal(b1-4)Glc
In short: as §1

[20] = target: GalNAc(b1-3)Gal(a1-6)Gal(b1-4)Glc
In short: as §1

GalNAc(b1-3)GalNAc = target: GalNAc(b1-3)GalNAc
In short: as §1

GalNAc(b1-3)GlcNAc = target: GalNAc(b1-3)GlcNAc
In short: as §1

GalNAc(b1-4)Gal(b1-4)Glc = target: GalNAc(b1-4)Gal(b1-4)Glc
In short: as §1

B1: DrGal3 (Danio rerio) (protein)
chain: MDLSDALDAPPQQNNQQAGGPVWPGQPANPVWPGQPANPTWPGQPNQPAWPGQPNQQWPGQPGQPTAPGWPGPAPQTGPYGAPGQAPQVLTVPLDFPLQNGAYNKMLITINGEVKPNAKQFTVNLRRGNDIAFHINPRFSEGGKPVIVRNSMIGNNWGREERELPSFPFVPGKPFEMKILITDTEYKVAVNKSHLLEFKHRVFELNQITGLSIYNDVTLSTVNVETLQ
- glycan array binding signal (z-score) [1]: 0.159
- glycan array binding signal (z-score) [2]: -0.147
- glycan array binding signal (z-score) [3]: -0.223
- glycan array binding signal (z-score) [4]: -0.269
- glycan array binding signal (z-score) [5]: -0.169
- glycan array binding signal (z-score) [6]: -0.258
- glycan array binding signal (z-score) [7]: -0.229
- glycan array binding signal (z-score) [8]: -0.144
- glycan array binding signal (z-score) [9]: -0.192
- glycan array binding signal (z-score) [10]: -0.235
- glycan array binding signal (z-score) [11]: -0.218
- glycan array binding signal (z-score) (Gal(b1-4)GlcNAc6P): -0.184
- glycan array binding signal (z-score) (Gal(b1-6)Gal): -0.229
- glycan array binding signal (z-score) (Gal3S(b1-3)GalNAc): -0.185
- glycan array binding signal (z-score) (Gal3S(b1-3)GlcNAc): -0.186
- glycan array binding signal (z-score) [12]: -0.212
- glycan array binding signal (z-score) (Gal3S(b1-4)Glc): -0.251
- glycan array binding signal (z-score) (Gal3S(b1-4)Glc6S): -0.196
- glycan array binding signal (z-score) (Gal3S(b1-4)GlcNAc): -0.25
- glycan array binding signal (z-score) [13]: 0.006
- glycan array binding signal (z-score) [14]: -0.154
- glycan array binding signal (z-score) [15]: -0.106
- glycan array binding signal (z-score) (Gal3S4S(b1-4)GlcNAc): -0.258
- glycan array binding signal (z-score) (Gal3S6S(b1-4)GlcNAc): -0.226
- glycan array binding signal (z-score) (Gal3S6S(b1-4)GlcNAc6S): -0.202
- glycan array binding signal (z-score) (Gal4S(b1-4)GlcNAc): -0.261
- glycan array binding signal (z-score) (Gal4S6S(b1-4)GlcNAc): -0.248
- glycan array binding signal (z-score) (Gal6P(b1-4)GlcNAc): -0.258
- glycan array binding signal (z-score) (Gal6S(b1-3)GlcNAc): -0.255
- glycan array binding signal (z-score) (Gal6S(b1-3)GlcNAc6S): -0.174
- glycan array binding signal (z-score) (Gal6S(b1-4)Glc): -0.239
- glycan array binding signal (z-score) (Gal6S(b1-4)Glc6S): -0.24
- glycan array binding signal (z-score) (Gal6S(b1-4)GlcNAc): -0.208
- glycan array binding signal (z-score) (Gal6S(b1-4)GlcNAc6S): -0.252
- glycan array binding signal (z-score) (GalNAc(a1-3)Gal): -0.25
- glycan array binding signal (z-score) (GalNAc(a1-3)GalNAc): -0.246
- glycan array binding signal (z-score) [16]: -0.259
- glycan array binding signal (z-score) [17]: -0.217
- glycan array binding signal (z-score) (GalNAc(b1-3)Gal): -0.225
- glycan array binding signal (z-score) [18]: 0.108
- glycan array binding signal (z-score) [19]: -0.174
- glycan array binding signal (z-score) [20]: -0.285
- glycan array binding signal (z-score) (GalNAc(b1-3)GalNAc): -0.257
- glycan array binding signal (z-score) (GalNAc(b1-3)GlcNAc): -0.265
- glycan array binding signal (z-score) (GalNAc(b1-4)Gal(b1-4)Glc): -0.253
